Experimental data taken from PubChem BioAssay AID651568 (National Center for Advancing Translational Sciences (NCATS), 2012).
Out of some 1,200 compounds screened, about 55 (5%) were called active. Another 15% or so got no clear call; they are omitted. Calls follow the shape of the dose curve; as a rule, active = well fitted inhibition curve with a large enough effect; inconclusive = small, poorly fitted or top-dose-only effect; inactive = no such curve, though single readings can be large or run the other way. Some of the results follow.

Assay: qHTS Assay to Find Inhibitors of Chronic Active B-Cell Receptor Signaling: Hit Validation in Renilla Reporter Assay; also: nearly all actives have a fitted effect of over 70% in size
Details: TMD8 IkB-Renilla luciferase reporter, NF-kB signaling; series mostly up to 57.5 µM; activity change, negative = inhibition: at the top concentration
Outline: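 Orthogonal secondary test of primary-screen hits in ABC-DLBCL cells carrying constitutively expressed IkB-Photinus and Renilla luciferase reporters, read by Dual-Glo luminescence; luciferases differ from the primary assay's click beetle enzymes, to exclude assay-specific artifacts.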
% is scaled to controls: 0 for no effect and ±100 for the full control effect.

Activity change, negative = inhibition, inactive:
Cc1noc(C)c1CSc1ccc2ccccc2n1 9.23%
COc1cc(C(CCN2CCOCC2)c2c(OC)cc(OC)c3c(-c4ccccc4)cc(=O)oc23)cc(OC)c1OC (centres undefined) -12.5%
COc1ccccc1-c1cc(C(=O)NCCc2ccccc2)no1 1.79%
CCOc1ccc2c(c1)C(C)=CC(C)(C)N2S(=O)(=O)c1ccc(NC(C)=O)cc1 3.79%
CCCCCC1CCC(c2n[nH]c(=S)n2C)CC1 (centres undefined) 10.6%
Cn1c(=O)[nH]c(=O)c2c1nc(SCC(N)=O)n2Cc1cccc(Br)c1 3.59%
O=C(CSc1ncn[nH]1)Nc1nnc(-c2ccccc2)s1 -24.2%
O=C(CN1CCC(NC(=O)Nc2ccc(F)cc2)CC1)Nc1ccccc1[N+](=O)[O-] -17.4%
CCc1ccc2oc(=O)cc(CN3CCCCC3C)c2c1 (centres undefined) -4%
Nc1ncnc2c1ncn2[C@@H]1O[C@H](CNC(=O)[C@@H]2CCCN2S(=O)(=O)c2ccc(F)cc2)[C@@H](O)[C@H]1O 0.718%
O=C(CSc1ncccc1C(=O)O)c1ccc2ccccc2c1 -0.336%
COc1cc(C(=O)NC2CCN(Cc3nnnn3Cc3ccc(F)cc3)CC2)cc(OC)c1OC 4.76%
Cc1nnc2sc(-c3csc4c3CCCC4)nn12 -16.9%
CCc1nc2ccccc2c(C(=O)OCc2nc3ccccc3c(=O)[nH]2)c1C -0.954%
CCc1nnc(NC(=O)CSc2nnc(-c3ccccc3NC(=O)c3ccccc3)o2)s1 -4.69%
COc1cc(C2=NOC(C(=O)NCc3ccc(F)cc3)C2)cc(OC)c1OC (centres undefined) -9.62%
COc1ccc(CCCC(=O)N/N=C/c2cccc(OC)c2O)cc1C -12.9%
O=c1c2c(-c3ccco3)csc2nc(SCc2cn3cccnc3n2)n1-c1ccccc1 -3.42%
CNc1nc(N)c([N+](=O)[O-])c(NCc2ccccc2)n1 7.74%
COC(=O)c1cccc(-n2sc3ccccc3c2=O)c1 -19%
CC(=O)c1ccc(Oc2cc(C)nc(-n3nc(C)cc3C)n2)cc1 -4.03%
O=C(Cc1n[nH]c(=O)c2ccccc12)OCC(=O)c1ccc2c(c1)OCCO2 2.17%
CCCNc1ccc(C(=O)OCC)cc1[N+](=O)[O-] -1.49%
CCN(CC)c1ccc2c(cc1=O)[C@@H](NC)CCc1cc(OC)c(OC)c(OC)c1-2 -30%
Cc1ccccc1-c1nc2c3ccccc3nc(=S)n2[nH]1 -19%
O=C(Cc1ccc(-n2c(=O)c3ccccc3n(Cc3ccc(F)cc3)c2=O)cc1)NCC1CCCO1 (centres undefined) -25.1%
CCOC(=O)C1=C(C)NC(C)=C(C(=O)OCC)C1C(=O)OCC(=O)NCc1ccccc1OC 20.3%
CCOC(=O)C(C)Oc1cccc2c(=O)n(CC(=O)NCc3ccc(F)cc3)ccc12 (centres undefined) 1.17%
CCN1C(=O)c2cccc3c(NC(=O)c4ccc(OC)c(OC)c4)ccc1c23 2.97%
C=CCNC(=S)N/N=C/c1ccc(C)cc1C -2.71%
CCN(CC)S(=O)(=O)c1ccc(C(=O)NCCSc2c[nH]c3ccccc23)cc1 -1.06%
NNC(=O)c1cc2cc(OC(F)(F)F)ccc2[nH]1 -3.97%
CC(=O)OCC(=O)[C@@]1(O)CC[C@H]2[C@@H]3CCC4=CC(=O)C=C[C@]4(C)[C@H]3[C@@H](O)C[C@@]21C 0.226%
Cc1cn(-c2cccnc2)c(C)c1CNC[C@H]1O[C@@H](n2cnc3c(N)ncnc32)[C@H](O)[C@@H]1O 0.99%
O=[N+]([O-])c1cc(F)c2cccnc2c1O -24.3%
CCOc1ccc(NC(=S)N(CCc2c(C)[nH]c3ccccc23)Cc2cccnc2)cc1 17.2%
CNC(=O)c1cccc(NC(=O)C(C)c2ccc3cc(OC)ccc3c2)c1 (centres undefined) -13.1%
CCc1c(C)nc(SCCOc2ccc(OC)cc2)[nH]c1=O 3.08%
CC(=O)Nc1ccc(S(=O)(=O)NCC(=O)OC(C)c2ccccc2Cl)cc1 (centres undefined) 12.7%
Cc1ccc(S(=O)(=O)Nc2cccc(-c3ccc4nncn4n3)c2)cc1 35.7%
COc1cc(OC)cc(C(=O)NCc2cc(C)nc3ccccc23)c1 -1.18%
O=[N+]([O-])c1ccc(O)c2ncccc12 -22.6%
CCOC(=O)C(C)Oc1cccc2c(=O)n(CC(=O)NCc3ccc4c(c3)OCO4)ccc12 (centres undefined) -0.0774%
Cc1ccc(OCCN2C(=O)C(=O)c3cc(C)ccc32)cc1 -29.2%
O=C(NC(=S)Nc1cccc(F)c1)c1cccc([N+](=O)[O-])c1 21.1%
Cc1ccc(CCC(=O)Nc2ncc(Cc3cccc(Cl)c3Cl)s2)o1 -12%
CCCc1nnc(NC(=S)Nc2ccccc2)s1 -2.24%
Cc1cc(C(=O)NN)c2cc(Br)ccc2n1 -7.79%
O=C1N/C(=N/N=C/c2ccccc2O)SC1Cc1ccc(F)cc1 (centres undefined) -10.5%
CCOc1ccc2[nH]c(C(=O)N/N=C/c3ccc(OC)cc3)cc2c1 -1.58%
Cc1ccc(N(C)S(=O)(=O)c2ccc(-c3cnc(C4CC4)o3)cc2)cc1 -14.6%
O=C(CNC(=O)c1ccco1)N=Nc1c(O)n(CCc2ccccc2)c2ccccc12 -27.6%
COc1cc(OC)cc(-c2cc3cc4c(cc3cn2)OCO4)c1 -4.56%
CCn1c(=S)[nH]c2cc(S(=O)(=O)N3CCOCC3)ccc21 0.373%
CCOC(=O)c1[nH]c(C)c(C(=O)c2ccc(C)cc2)c1C 1.19%
COc1ccc(OCC(O)CN2CCN(c3ccccc3)CC2)cc1 (centres undefined) -3.59%
Cc1ccc(S(=O)(=O)n2cc(-c3ccccc3)c3ccccc32)cc1 4.15%
Cc1ccc2nc(SCC(=O)Nc3cc(C(F)(F)F)ccc3N3CCOCC3)[nH]c2c1 0.461%
COC(=O)CSC1=C(C#N)C(c2ccc(C)o2)CC(=O)N1 (centres undefined) -14.8%
CCN(CC)S(=O)(=O)c1ccc2c(c1)c(=O)c(C(=O)NCCc1ccc(OC)c(OC)c1)cn2C 50%
CCOC(=O)C(NCc1ccccc1)(NC(=O)c1ccccc1)C(F)(F)F (centres undefined) 11.7%
CC/C(=N/Nc1ccc(Cl)cc1)c1cnnc(SC)n1 3.12%
Cc1cc(/C=C(\C#N)C(=O)N2CCCCC2)cc(C)c1O 5.45%
C/C(=N\NC(=O)COc1ccccc1-c1ccccc1)c1ccccn1 -4.14%
